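In this assay, cells in 96-well plates receive the compound at five concentrations for 48 hours. Endpoints are linearly interpolated between the surrounding concentrations. GI50 marks 50% less growth. TGI is the concentration that stops growth completely.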
test system: NCI-H322M lung; assay: inhibition of tumour cell growth, NCI panel, 48 h

SMILES	TGI	GI50
COc1ccc(CN2C(=O)[C@@H]3Cc4c(OC)c(C)c(OC)c(OC)c4[C@H](/C2=C\c2cc(OC)c(OC)c(C)c2OC)N3C(=O)OC(C)C)cc1	> 100 µM	–
COc1cccc2c1C(=O)c1c(O)c3c(c(O)c1C2=O)C[C@@](O)(/C(CO)=N/NC(=O)CCCCCN1C(=O)C=CC1=O)C[C@@H]3O[C@H]1C[C@H](N)[C@H](O)[C@H](C)O1	> 82.2 µM	2.79 µM
O[C@@]1(C#Cc2ccc3c(c2)OCO3)CCC[C@H]1NCc1ccccc1	> 100 µM	–
Cc1ccccc1NC(=O)/C(=N\NC(N)=S)C(C#N)c1ccccc1 (stereo not given)	> 100 µM	–
CNC(=O)C(C)Oc1ccc(OCC2CCCCC2)cc1 (stereo not given)	> 100 µM	–
O=S(=O)(NC1=NCCN1C(=S)SN1CCn2c1nsc2=S)c1ccc(Oc2ccccc2)cc1	> 100 µM	> 100 µM
CCOC(=O)C1=C(C)N(c2ccc(Cl)cc2)C2(O)C=CC(=O)C3=C(O)c4ccccc4C(=O)C312 (stereo not given)	35 µM	–
NCCCNc1nc2ccccc2c2c(=O)c3cc(F)ccc3sc12	2.97 µM	1.58 µM
CC(C)(C)[Si](C)(C)OCC1OC(n2cnc3c(=O)[nH]cnc32)CC1O (stereo not given)	> 100 µM	–
O=C(Nc1nc(-c2ccc(Cl)cc2)cs1)c1cc(O)c(O)c(O)c1	3920 µM	519 µM
C=C(C)[C@H]1CC[C@@]23O[C@@H]2[C@@H](C[C@@]2(C)CC(=O)[C@H](CC(=O)C1)O2)OC(=O)[C@@]12CC[C@H](C(=C)C)CC(=O)C[C@H]4O[C@](C)(CC4=O)C[C@@H](OC3=O)[C@@H]1O2	> 100 µM	–
C[P+]1(Cc2ccccc2)CCCC1	> 100 µM	–
CSC1=NN(C(C)=O)C(C(OC(C)=O)C(OC(C)=O)C(OC(C)=O)C(COC(C)=O)OC(C)=O)S1 (stereo not given)	> 100 µM	–
C/C(=N\NC(=O)c1ccncc1)c1sc(-n2nc(-c3ccccc3)cc2-c2ccccc2)nc1C	> 100 µM	–
Cc1ccc(/C=N/NC(=O)c2ccccc2Oc2ccccc2)o1	> 100 µM	> 96.5 µM
COc1ccc2c(c1)C(=Nc1ccc(F)c(Cl)c1)c1c-2c(Nc2ccc(F)c(Cl)c2)nc2ccccc12	> 100 µM	> 100 µM
Cc1ccc2[nH]c3c(c(=O)n(C)c(=O)n3C)c2c1	> 100 µM	–
CCN(CC)CCNc1ccc2ncn3c4ccc(OC)cc4c(=O)c1c23	18.8 µM	–
Cn1c(CCCC(=O)O)nc2cc(N(CCCl)CCCl)ccc21	> 100 µM	> 92.1 µM
Cc1cccc(C)c1NC(=O)CCC(=O)NC(N)=NC#N	> 100 µM	–
CC1OC(n2cc(C(F)(F)F)c(=O)[nH]c2=O)C=CC1=O (stereo not given)	63.8 µM	–
CN1CCN(c2cc3nc(-c4ccc(Cl)cc4)[nH]c3cc2F)CC1	33.7 µM	–
CC1=NN(c2ccc(S(=O)(=O)O)cc2)C2(C1)C(Cl)C(=O)N2c1nc2ccccc2s1 (stereo not given)	> 100 µM	–
CCC12C=CCN(CCc3c([nH]c4ccccc34)/C=C\1)C2 (stereo not given)	> 100 µM	–
Cc1ccc(N(C=O)c2c([N+](=O)[O-])cc([N+](=O)[O-])c3c2=[N+]([O-])CN=3)cc1	> 100 µM	–

SMILES	TGI	GI50
COc1cccc(Nc2ncnc3cc(NC(=O)CCl)ccc23)c1	5.72 µM	2.29 µM
COc1ccc(-c2sc(Br)c3c2C(=O)C2OC(=O)NC32)cc1OC (stereo not given)	> 100 µM	–
CC(C)c1oc(=O)cc2c1C(O)C1OC(=O)C3(C)C(O)C4OC4C2(C)C13 (stereo not given)	27.5 µM	–
CN1CCC2(c3ccccc3)CC(=O)/C(=C/c3ccc(Cl)c(Cl)c3)C1C2 (stereo not given)	15.7 µM	–
CCN(CC)C(=O)CCn1cc(F)c(=O)[nH]c1=O	> 100 µM	–
CC(=O)OCC1OC(n2c(C)c(C(C)=O)c(-c3ccco3)c(C#N)c2=S)C(OC(C)=O)C(OC(C)=O)C1OC(C)=O (stereo not given)	> 100 µM	–
O=C(O)CCC(NC(=O)c1ccc(Nc2cnc3cc(C(F)(F)F)ccc3n2)cc1)C(=O)O (stereo not given)	> 100 µM	–
Clc1cccc(-c2nc3cccc4c3n2Cc2ncccc2-4)c1	> 100 µM	–
C#C[C@@]1(O)[C@@H](CO)O[C@@H](n2cc(Br)c3c(Cl)ccnc32)[C@@H]1O	> 100 µM	0.485 µM
CC1(C)C(N2CCOCC2)CS1(=O)=O (stereo not given)	> 10 µM	–
CN(c1ccccc1)c1cc2ccccc2nn1	> 100 µM	–
O=C(c1cscc1CCc1ccccc1)c1cscc1CCc1ccccc1	> 100 µM	–
O=S1SC(=S)C2C=CC=NC21 (stereo not given)	> 100 µM	–
C[C@]12CC[C@H](O[C@@H]3O[C@H](CO[C@@H]4O[C@H](CO)[C@@H](O)[C@H](O)[C@H]4O)[C@@H](O)[C@H](O)[C@H]3O)C[C@@H]1CC[C@@H]1[C@@H]2CC[C@]2(C)[C@@H](C3=CC(=O)OC3)CC[C@]12O	> 91.3 µM	–
Cc1cc(=O)oc2c1cc1ccc3cccc4ccc2c1c34	> 100 µM	–
CCCC(=O)OCC1OC(n2cc(F)c(=O)[nH]c2=O)CC1O (stereo not given)	> 10 µM	–
Nc1[nH]nc2nc(-c3cc(Cl)ccc3Cl)cc(-c3ccc(F)cc3)c12	90 µM	29 µM
C/C=C(\N=C=S)C(=O)OC1C(COC(C)=O)OC([C@]2(O)CC(=O)C(=N)C(C(=O)O)=C2O)C(O)C1OC1CC(OC)C(O)([C@@H](C)OC(=O)[C@@H](C)CC)C(C)O1 (stereo not given in full)	38.7 µM	–
CCOC(=O)c1cc(=O)n(C)c(=O)n1C	> 100 µM	–
Cc1ccc2c(c1)-c1c3c(nn1C)-c1ccccc1SC3O2 (stereo not given)	> 100 µM	–
COC(=O)[C@]12CC[C@@H](C)[C@H](C)[C@@H]1C1=CC[C@@H]3[C@@]4(C)C(C=O)=C[C@@](C)(CO)[C@@H]4[C@H](O)C[C@@]3(C)[C@]1(C)CC2	25.7 µM	12.3 µM
CC(=O)Nc1cc(Cl)cc(Cl)c1O	> 100 µM	–
CC(O)CNC(=O)Nc1c(C(F)(F)F)cc(-c2ccccc2)[nH]c1=O (stereo not given)	> 100 µM	–
O=c1nc2sc3ccccc3c(=O)n2[nH]1	> 100 µM	–

Source: PubChem BioAssay (NCI)
